The BET-seq Pho4 binding data (Le et al. 2018)
Some of the results follow. These are noisy estimates, calculated here from bound and input reads.

molecular target: T1, Pho4 (S. cerevisiae) (UniProt P07270); experiment: relative binding free energy (BET-seq); higher = weaker binding; details: reference: library average
T1 sequence: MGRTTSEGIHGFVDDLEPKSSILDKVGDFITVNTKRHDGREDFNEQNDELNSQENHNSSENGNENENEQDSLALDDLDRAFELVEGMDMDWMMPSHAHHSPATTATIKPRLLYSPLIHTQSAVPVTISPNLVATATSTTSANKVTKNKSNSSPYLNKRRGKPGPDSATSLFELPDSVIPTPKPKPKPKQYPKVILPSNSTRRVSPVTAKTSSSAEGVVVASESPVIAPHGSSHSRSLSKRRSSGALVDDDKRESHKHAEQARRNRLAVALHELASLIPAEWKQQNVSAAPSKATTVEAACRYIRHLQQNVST

Sequence	relative binding free energy
GATGGCACGTGATGTC	0.03 kcal/mol
GGGGGCACGTGGCGTA	-0.12 kcal/mol
AATTTCACGTGTGAGC	0.38 kcal/mol
GAGTTCACGTGATATG	0.38 kcal/mol
GGCGGCACGTGGGGAC	-0.15 kcal/mol
GGGCTCACGTGCTGGT	0.15 kcal/mol
GTTTACACGTGTATGC	0.1 kcal/mol
AATTTCACGTGGTCTA	0.17 kcal/mol
GTGTTCACGTGCTGAT	0.24 kcal/mol
TATGACACGTGATTGT	0.19 kcal/mol
ATATGCACGTGACGTT	0.18 kcal/mol
CATGTCACGTGGGATG	0 kcal/mol
CGAGGCACGTGGAAGG	-0.04 kcal/mol
GTATTCACGTGCTATT	0.15 kcal/mol
TTTTACACGTGGTGAA	0.06 kcal/mol
GGATGCACGTGGTTTC	0.11 kcal/mol
TTATTCACGTGAATTT	0.4 kcal/mol
GTTATCACGTGTGATG	0.21 kcal/mol
TTTGTCACGTGGGAGC	-0.06 kcal/mol
GTTGTCACGTGGTCGA	0.06 kcal/mol
GGCGGCACGTGGACAT	0.09 kcal/mol
GAATGCACGTGGTTAG	0.15 kcal/mol
TTTGACACGTGTTGAT	-0.04 kcal/mol
GACGGCACGTGGGAGT	-0.13 kcal/mol
GGCGGCACGTGCAAGG	0.02 kcal/mol
TTATACACGTGAAGTT	0.23 kcal/mol

Sequence	relative binding free energy
AACGTCACGTGTGTTT	0.23 kcal/mol
GGTGTCACGTGTGTTA	0.18 kcal/mol
TAGTGCACGTGGCATG	-0.22 kcal/mol
TTGACCACGTGGGAGT	-0.14 kcal/mol
GAGTGCACGTGGGGTG	-0.11 kcal/mol
GGTATCACGTGTACGT	0.21 kcal/mol
GAGCTCACGTGTGGGT	0.42 kcal/mol
ATGCGCACGTGGTGAT	-0.22 kcal/mol
ATTATCACGTGAAGGT	0.34 kcal/mol
CAGATCACGTGTATGT	0.19 kcal/mol
AATGTCACGTGCGGGA	0.05 kcal/mol
AATAGCACGTGTAGTG	-0.07 kcal/mol
TTTGTCACGTGCAGAG	0.03 kcal/mol
ACGGTCACGTGAGGGC	0.33 kcal/mol
TGTTGCACGTGGTGCT	-0.08 kcal/mol
TATGTCACGTGCATTG	0.15 kcal/mol
TGTATCACGTGATGTG	0.19 kcal/mol
GACTACACGTGTTGGT	0.23 kcal/mol
GGGGGCACGTGAGGAC	0.22 kcal/mol
GCTGGCACGTGAATGG	0.08 kcal/mol
TGTGCCACGTGCGGAG	-0.18 kcal/mol
AGTGTCACGTGTGTCG	0.04 kcal/mol
GGTGTCACGTGTCTAT	0.29 kcal/mol
GTCGGCACGTGGTACG	-0.12 kcal/mol
TGCAACACGTGGGGTA	-0.29 kcal/mol
GGCATCACGTGAGTGG	0.34 kcal/mol

Sequence	relative binding free energy
GGATTCACGTGAAGGT	0.33 kcal/mol
GTTGGCACGTGAGATG	0.16 kcal/mol
ATGGTCACGTGGCATT	-0.07 kcal/mol
ATACGCACGTGGTAGT	-0.2 kcal/mol
GGTTACACGTGTAGGC	0.3 kcal/mol
TTTGACACGTGAAAGG	0.27 kcal/mol
TAGGGCACGTGTGGCA	-0.12 kcal/mol
ATGAACACGTGGGCGT	-0.22 kcal/mol
GGAGGCACGTGTTTCT	-0.08 kcal/mol
TATTTCACGTGTGATC	0.22 kcal/mol
GGGTTCACGTGTTGTG	0.34 kcal/mol
AGACTCACGTGGGGAG	0.37 kcal/mol
CGTCGCACGTGATGGT	0.15 kcal/mol
GAAGTCACGTGGTCAG	0.11 kcal/mol
TGGAACACGTGTAGGG	-0.06 kcal/mol
GGTACCACGTGGTGAT	-0.03 kcal/mol
GTCGTCACGTGGTATA	0.14 kcal/mol
TTACGCACGTGAAGTG	0.15 kcal/mol
GTCAGCACGTGGGGTG	-0.26 kcal/mol
GTGGTCACGTGAGGAA	0.34 kcal/mol
GTTGGCACGTGTTTTC	-0.06 kcal/mol
TAGTGCACGTGGGAAC	-0.04 kcal/mol
GTGTGCACGTGGTGGA	-0.01 kcal/mol
CGCATCACGTGTTTGG	0.13 kcal/mol
CTTAACACGTGGGTTA	-0.12 kcal/mol
GTCTACACGTGTTGAG	0.15 kcal/mol

Sequence	relative binding free energy
CATTTCACGTGGGATT	0.21 kcal/mol
TAGTGCACGTGTTGGC	0.02 kcal/mol
GAAATCACGTGATGTA	0.37 kcal/mol
AGGTTCACGTGTAGGT	0.26 kcal/mol
GCGATCACGTGGTGAT	0.14 kcal/mol
GCTGTCACGTGGAGAG	0.14 kcal/mol
AGAGGCACGTGCTTAT	0 kcal/mol
TTGGGCACGTGCGCGT	-0.22 kcal/mol
TAATGCACGTGTGGGC	0.04 kcal/mol
TTTAGCACGTGGGATG	-0.14 kcal/mol
TGGATCACGTGGCTAG	0.1 kcal/mol
GATAGCACGTGTCTGG	0.01 kcal/mol
GATGTCACGTGGAATT	0.42 kcal/mol
TGCAGCACGTGGGTGG	-0.19 kcal/mol
TTGCGCACGTGGTCGT	-0.12 kcal/mol
TTGGGCACGTGCGTGG	-0.12 kcal/mol
GGTTTCACGTGACGAT	0.42 kcal/mol
TTGATCACGTGTATTC	0.17 kcal/mol
AAGGTCACGTGGCAGG	0.14 kcal/mol
GGTGACACGTGTGCCT	0.2 kcal/mol
CGGAGCACGTGATGTT	0.04 kcal/mol
TAAGTCACGTGATATG	0.02 kcal/mol
GAGGGCACGTGATAGC	0.05 kcal/mol
ATGGCCACGTGGTGTA	-0.16 kcal/mol
AAGATCACGTGGGTTA	0.11 kcal/mol
TGTGTCACGTGGAGCC	0.13 kcal/mol

Sequence	relative binding free energy
TTCTACACGTGGTGTC	0.11 kcal/mol
CGTTGCACGTGATCGT	0.06 kcal/mol
TAATGCACGTGGTCGG	-0.24 kcal/mol
AGTCACACGTGTGGTA	0.13 kcal/mol
GTTTTCACGTGCGTGT	0.28 kcal/mol
AGTTTCACGTGGAATA	0.37 kcal/mol
AGATACACGTGATATG	0.12 kcal/mol
TACGTCACGTGTGTAA	0 kcal/mol
GGGAGCACGTGATTTT	0.11 kcal/mol
AGTCGCACGTGGCATG	-0.08 kcal/mol
GTTGTCACGTGTAAGT	0.18 kcal/mol
CTTTTCACGTGCATGG	0.31 kcal/mol
TTTTACACGTGGATTA	0.29 kcal/mol
TTTCGCACGTGGTGCA	-0.22 kcal/mol
ATAGGCACGTGTTTCT	-0.2 kcal/mol
ACGAGCACGTGTTAGG	-0.07 kcal/mol
AAAAGCACGTGAGGTT	0.08 kcal/mol
TTCTGCACGTGAGTGT	0.3 kcal/mol
CTGAGCACGTGAGGTA	0.12 kcal/mol
ATGGGCACGTGAGGTG	0.06 kcal/mol
GTGGTCACGTGAGCTT	0.38 kcal/mol
GTGGTCACGTGACTGT	0.19 kcal/mol
TTGTGCACGTGCTGTT	-0.05 kcal/mol
AGTGTCACGTGGCTGT	-0.09 kcal/mol
TGGGGCACGTGGGAAA	-0.19 kcal/mol
CTGTGCACGTGTAGTT	-0.02 kcal/mol

Sequence	relative binding free energy
TTAGGCACGTGCTGCG	-0.3 kcal/mol
TGCTGCACGTGGCTGT	-0.13 kcal/mol
CATGCCACGTGGGGTT	-0.29 kcal/mol
TGGGTCACGTGTTATG	0.27 kcal/mol
AAGGTCACGTGTTCGG	0.28 kcal/mol
TGCGTCACGTGTTATT	0.02 kcal/mol
TAAATCACGTGTAAGA	0.34 kcal/mol
TTGTCCACGTGGTGGA	0.03 kcal/mol
TCTTGCACGTGCTGGT	-0.05 kcal/mol
ATTAACACGTGTTTGT	-0.14 kcal/mol
TGTTGCACGTGGTGCC	-0.18 kcal/mol
GTTGGCACGTGGGGGC	-0.12 kcal/mol
TGAGCCACGTGTAGTA	0.05 kcal/mol
AATTGCACGTGGCTGG	-0.08 kcal/mol
TTAGTCACGTGAATAA	0.25 kcal/mol
GTGATCACGTGTTGTC	0.08 kcal/mol
GCTTGCACGTGCGTAG	0.15 kcal/mol
ATGATCACGTGAGTTT	0.28 kcal/mol
AGCTGCACGTGATGCG	0.1 kcal/mol
CAGAGCACGTGGGAGG	-0.2 kcal/mol
GGGGGCACGTGGGTAC	-0.07 kcal/mol
TTACACACGTGGGAGG	-0.06 kcal/mol
AAGGACACGTGTCAGT	0.24 kcal/mol
GGTTACACGTGGGAGC	-0.02 kcal/mol
TCGGGCACGTGCAGTG	-0.18 kcal/mol
TTATGCACGTGTTAAG	-0.08 kcal/mol

Sequence	relative binding free energy
ATTAGCACGTGTTTGT	-0.08 kcal/mol
ATGGGCACGTGAACAG	0.15 kcal/mol
AAGATCACGTGTAGTT	0.14 kcal/mol
GGAAACACGTGTGGTT	0.01 kcal/mol
CGTTGCACGTGAGATG	0.12 kcal/mol
AGTGTCACGTGTAGGC	0.05 kcal/mol
TCGTGCACGTGTGGGG	-0.08 kcal/mol
TAATGCACGTGGTTAG	-0.1 kcal/mol
GTGTACACGTGAGACG	0.19 kcal/mol
TTGAGCACGTGCGAGG	-0.16 kcal/mol
ATGTGCACGTGTATTA	0.08 kcal/mol
TAGGTCACGTGTAACG	0.25 kcal/mol
GTGAGCACGTGCGTTT	-0.09 kcal/mol
CTGACCACGTGTGTGG	-0.01 kcal/mol
TTAGACACGTGAGGCT	0.26 kcal/mol
ATTTACACGTGAATGG	0.26 kcal/mol
ATGTCCACGTGGGTAA	-0.01 kcal/mol
GTCAACACGTGGGGTT	-0.06 kcal/mol
GGTATCACGTGTATCG	0.14 kcal/mol
TATAACACGTGGTAAT	0.05 kcal/mol
GTGGTCACGTGAACTG	0.43 kcal/mol
ATATTCACGTGGGATG	0.06 kcal/mol
ATCGTCACGTGTAGGA	0.29 kcal/mol
TATTACACGTGTCATT	0.11 kcal/mol
TTTGACACGTGCTGTT	-0.23 kcal/mol
TAGAACACGTGGATTT	0.22 kcal/mol

Sequence	relative binding free energy
TTCGTCACGTGGGGGG	0.01 kcal/mol
TCTGGCACGTGAGGGG	0.16 kcal/mol
ATGTACACGTGGGCGA	-0.02 kcal/mol
GGTATCACGTGAATTA	0.44 kcal/mol
GACTTCACGTGATTGG	0.48 kcal/mol
GCGTGCACGTGTGTCT	0.18 kcal/mol
ACTTTCACGTGGTGCG	0.2 kcal/mol
ACTGGCACGTGTGTGG	0.02 kcal/mol
TGGCTCACGTGGGTTC	0.09 kcal/mol
AGTTACACGTGTTGTG	0.06 kcal/mol
AGATTCACGTGGGTCT	0.15 kcal/mol
AAATTCACGTGGGTGT	0.17 kcal/mol
GCGGGCACGTGATAGT	0.14 kcal/mol
AGTGCCACGTGGGGGA	-0.34 kcal/mol
TTATTCACGTGGGTAG	0.06 kcal/mol
TTCCGCACGTGTGTAG	-0.06 kcal/mol
TGTAGCACGTGGTGCG	-0.29 kcal/mol
AGTCTCACGTGTGATG	0.27 kcal/mol
GGAATCACGTGGTTCG	0.23 kcal/mol
TTTAGCACGTGGCTTT	-0.14 kcal/mol
ATTGGCACGTGCGGGA	-0.08 kcal/mol
TAGGTCACGTGATTGT	0.26 kcal/mol
AGGTACACGTGAGGGG	0.31 kcal/mol
GGGTACACGTGGTGGT	0.05 kcal/mol
TGGTGCACGTGGCATG	-0.13 kcal/mol
AAGTCCACGTGGTTTG	0.08 kcal/mol

Sequence	relative binding free energy
AGAGACACGTGGGCAG	-0.05 kcal/mol
GTGAGCACGTGGGACG	-0.12 kcal/mol
CTTGGCACGTGGTCTT	-0.13 kcal/mol
TTGTGCACGTGTGGAC	0.14 kcal/mol
ATTAACACGTGGGGTG	-0.12 kcal/mol
ATGCGCACGTGATGGG	-0.01 kcal/mol
GTTATCACGTGTAAGG	0.14 kcal/mol
CATGGCACGTGTATAT	-0.02 kcal/mol
GGATTCACGTGTACGT	0.23 kcal/mol
GGTCGCACGTGAGGAT	0.47 kcal/mol
GTTCGCACGTGTGGGC	0.11 kcal/mol
CTTGGCACGTGAATTG	0.07 kcal/mol
TAATACACGTGGTTTG	0.02 kcal/mol
TTGGGCACGTGACGGC	0.17 kcal/mol
GGTGGCACGTGCTGTT	-0.19 kcal/mol
TTGGCCACGTGCGGGG	-0.15 kcal/mol
AAGAGCACGTGTGGGA	-0.16 kcal/mol
TTCGTCACGTGGAGCG	0 kcal/mol
TTAAACACGTGCGTTG	0 kcal/mol
GCTTCCACGTGGTGTT	0.13 kcal/mol
AAAGACACGTGTGGAT	0.25 kcal/mol
GATCGCACGTGTAGTG	0.11 kcal/mol
